Screen size: about 310,000 compounds; about 2,200 (0.71%) showed an effect of 50% or more. The effect is printed as a negative number. This is one part of the list.
Each compound was assayed against human ether-à-go-go-related gene (hERG) potassium channel (human, UniProt Q12809) (assay: primary screen, population patch clamp on CHO cells stably expressing hERG).
Chain of human ether-à-go-go-related gene (hERG) potassium channel (Q12809 whole entry, looked up): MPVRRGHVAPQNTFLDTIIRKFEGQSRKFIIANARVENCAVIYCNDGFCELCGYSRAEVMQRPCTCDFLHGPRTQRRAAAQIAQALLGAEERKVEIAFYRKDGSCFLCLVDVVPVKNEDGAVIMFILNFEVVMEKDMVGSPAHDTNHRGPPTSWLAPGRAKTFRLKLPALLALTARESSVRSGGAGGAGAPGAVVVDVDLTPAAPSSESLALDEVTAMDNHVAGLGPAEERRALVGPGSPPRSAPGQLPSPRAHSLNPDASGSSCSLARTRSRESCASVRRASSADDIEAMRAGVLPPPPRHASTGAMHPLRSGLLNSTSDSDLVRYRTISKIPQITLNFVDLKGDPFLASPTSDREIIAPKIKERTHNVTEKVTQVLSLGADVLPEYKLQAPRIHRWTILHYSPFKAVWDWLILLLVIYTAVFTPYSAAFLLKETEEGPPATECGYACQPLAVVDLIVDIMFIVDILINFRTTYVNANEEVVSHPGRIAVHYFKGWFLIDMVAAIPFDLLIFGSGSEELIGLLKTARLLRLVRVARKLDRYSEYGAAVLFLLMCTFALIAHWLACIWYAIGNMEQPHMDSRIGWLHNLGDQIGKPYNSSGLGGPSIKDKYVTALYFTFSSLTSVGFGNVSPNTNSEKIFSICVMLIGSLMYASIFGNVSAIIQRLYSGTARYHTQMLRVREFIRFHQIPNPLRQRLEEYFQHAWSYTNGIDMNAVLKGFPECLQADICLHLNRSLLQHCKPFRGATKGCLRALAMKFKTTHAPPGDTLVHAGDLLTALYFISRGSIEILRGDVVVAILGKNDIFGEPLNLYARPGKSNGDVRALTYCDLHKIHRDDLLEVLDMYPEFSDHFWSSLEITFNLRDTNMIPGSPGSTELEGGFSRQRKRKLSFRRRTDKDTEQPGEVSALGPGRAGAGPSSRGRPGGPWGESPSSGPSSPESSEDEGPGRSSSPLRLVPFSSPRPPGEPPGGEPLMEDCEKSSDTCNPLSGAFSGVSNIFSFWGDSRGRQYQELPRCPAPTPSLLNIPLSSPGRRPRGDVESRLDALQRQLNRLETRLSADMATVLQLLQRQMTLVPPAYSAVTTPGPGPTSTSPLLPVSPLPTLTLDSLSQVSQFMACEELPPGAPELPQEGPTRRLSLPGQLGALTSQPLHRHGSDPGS

SMILES	hERG current change (%, negative = inhibition) at 1uM [%]
CCOC(=O)C1=C(CC)OC(N)=C(C#N)C1c1cccs1 (stereo not shown)	3.73
COc1ccc(NC(=O)N2CCCC2C(=O)Nc2cccc(C)c2C)cc1 (stereo not shown)	12.4
CCN1C(=O)N[C@@H](c2cccc(C(F)(F)F)c2)C(C(=O)OC)=C1C	17.3
COc1ccc(NC(=O)Nc2c[nH]c(=O)[nH]c2=O)cc1	9.83
CC[C@H](C)Cc1cn([C@@H](CCCCN)C(=O)NCCCCCCCCCCC(=O)N2CCNCC2)nn1	15.1
CCCN(C(=O)Cn1ncc2c([nH]c3ccccc32)c1=O)c1ccccc1C	16
CCOc1ccc(NC(=O)CS(=O)CC(=O)NC2CCCc3ccccc32)cc1 (stereo not shown)	15.2
CCCc1n(CC(O)COCC2CC=CCC2)c2ccccc2[n+]1C.[I-] (stereo not shown)	-5.12
COc1ccccc1NC(=O)C1CCN(C(=O)NCc2ccccc2)CC1	8.48
COC(=O)CSc1cc([N+](=O)[O-])cc2c1c(C1OCCO1)nn2-c1ccccc1	-0.182
CC1CCCC(NS(=O)(=O)c2ccc3c(c2)OCCO3)C1C (stereo not shown)	3.3
Cc1ccc2nc3c(cc(C(=O)NCC4CCCO4)c(=N)n3CCCOC(C)C)c(=O)n2c1 (stereo not shown)	-72.5
COc1cc(NC(=O)C/C(C)=N/NC(=O)C2CCCCC2)c(OC)cc1Cl	14.8
O=C1N=NC2=C1c1c3ccccc3c(O)n1CC2	11.5
CCOP(=O)(O)c1cccc(OCCOCCOc2cccc(P(=O)(O)OCC)c2)c1	-1.31
O=[N+]([O-])c1cc2c(cc1C=Nc1ccccc1)OCO2	0.781
COc1cc([N+](=O)[O-])ccc1N	13.4
COc1ccccc1OCCNC(=O)C1CC(=O)N(c2ccccc2OC)C1 (stereo not shown)	2.48
c1ccc(Cn2ccnc2)cc1	17.7
COc1ccc(-c2csc(Nc3ccccc3)n2)cc1	13
CCc1c(C(=O)Nc2ccc(C)c(C)c2)[nH]c(C)c1C(C)=O	16.1
O=C(NC1CCCCC1)C(c1ccco1)N(C(=O)c1csnn1)c1ccc(Cl)cc1 (stereo not shown)	9.21

SMILES	hERG current change (%, negative = inhibition) at 1uM [%]
Cc1c(Cl)cccc1NC(=O)CCC(=O)NNC(=O)CCC(=O)O	5
Cc1onc(-c2c(F)cccc2Cl)c1C(=O)Nc1sc2c(c1C#N)CCC(C(C)(C)C)C2 (stereo not shown)	19.9
COc1ccc(C(=O)NCCc2nnc(SCc3nc4ccccc4c(=O)[nH]3)n2C)cc1	6.64
CN(CC(=O)Nc1ccccc1Br)C(=O)CNC(=O)C1CCCCC1	14.5
C=CCOC(=O)C1=C[C@@H](c2ccc(Br)cc2)C[C@@H](OCCCCO)O1	5.46
O=C(COc1ccc(Br)cc1)Nc1ccccc1C(=O)N1CCOCC1	1.78
COc1ccc(C(=O)N(CN2CCCC2=O)c2nccs2)cc1OC	7
COc1ccc(NC(=O)C2CCCCN2CC(=O)OCc2ccccc2)cc1OC.O=C(O)C(=O)O (stereo not shown)	2.71
Nc1ccccc1SC1CC(=O)N(c2ccc3c(c2)OCCO3)C1=O (stereo not shown)	12.3
Cc1ccc(S(=O)(=O)N2CCNC(=O)CC2)cc1	18.1
CC(C)C(O)C1CCN(Cc2nc(Cc3ccccc3Cl)no2)CC1 (stereo not shown)	15.5
Cc1coc2cc3oc(=O)c(CCC(=O)NC4CC4)c(C)c3cc12	12.8
CCOC(=O)C1CCN(C(=O)COC(=O)c2cc(-c3cccs3)nn2-c2ccccc2)CC1	9.01
CC(C)c1cc(C(=O)O)c2ccccc2n1	8.5
Cc1nn(C)c(C(=O)NNC(=O)Nc2cccc(C(F)(F)F)c2)c1Cl	13.5
COc1cccc(N/C(C)=C/C(=O)c2ccc(Br)cc2)c1	6.47
CCC(=O)N1CCN(c2ccc(NC(=O)c3cc4ccccc4o3)cc2Cl)CC1	-6.01
CC(=O)N/C(=C\c1ccc(F)cc1)C(=O)NC(Cc1ccccc1)C(=O)O (stereo not shown)	12.3
O=C(COC(=O)c1ccccc1C(=O)c1ccc(Cl)cc1)NCc1ccccc1	8.75
COc1ccccc1N(CC(=O)NCCN1CCOCC1)S(=O)(=O)c1ccc(C)cc1	6.43
COCC(C)n1c(COc2ccccc2F)nnc1SCC(=O)c1c(N)n(C)c(=O)n(C)c1=O (stereo not shown)	14.1
COc1ccc2cc(-c3[nH]ncc3CN3CCCC3c3nonc3C)ccc2c1 (stereo not shown)	10.5

SMILES	hERG current change (%, negative = inhibition) at 1uM [%]
CCCC(Oc1ccc(Br)cc1)c1nc2c3cc(OC)c(OC)cc3nc(=S)n2[nH]1 (stereo not shown)	8.35
Cc1c(C(=O)N2CCOCC2)oc2ccccc12	5.84
COc1cc(CO)ccc1OCc1nnnn1-c1ccc(C)cc1	-0.124
O=c1[nH]c(C2CCCN(S(=O)(=O)c3ccccc3)C2)nc2c1nnn2Cc1ccccc1Br (stereo not shown)	7.66
Cc1ccc(NC(=O)Nc2ncccc2C)cc1	7.31
C=CCn1c(CC(=O)OC)csc1=Nc1ccc(C(C)=O)cc1	3.96
CCC(Sc1ncccc1Nc1ccccn1)C(=O)O (stereo not shown)	13.6
COC(=O)c1[nH]c2c(c1C)C(=O)CC(c1ccc(C)cc1)C2 (stereo not shown)	8.22
COCCNC(=S)N1CCC(c2nc(-c3ccc(F)cc3)no2)CC1	-1.8
NC(=O)Nc1cccc2ccccc12	14.1
Cl.Clc1ccc(CNCCCSc2ncccn2)cc1Cl	4.07
COc1cccc(NS(=O)(=O)c2ccc(NC(C)=O)cc2)c1	-3.96
Cc1cc(NS(=O)(=O)c2ccc(NC(=O)COc3ccc(Br)cc3)cc2)nc(C)n1	18.3
Cc1cccc(N(C(=O)CNC(=O)c2cccs2)C(C(=O)NC2CCCC2)c2ccncc2)c1 (stereo not shown)	8.49
Cc1onc(-c2ccccc2)c1C(=O)Nc1ccc(C(=O)N2CCCCC2)cc1	16.6
CC1CCCN(C(=O)Cn2c3ccccc3c3nc4n(c(=O)c32)CCS4)C1 (stereo not shown)	6.41
CC1CCCCC1NC(=O)CN1C(=O)NC(C)(c2ccc(OC(F)F)cc2)C1=O (stereo not shown)	-23.2
O=C(NCCc1cccs1)C(c1ccccc1)c1ccccc1	20.8
O=C(N/N=C/c1ccncc1)c1ccc(-n2cccc2)cc1	1.48
Cc1c2cnn(CC(=O)Nc3c(F)c(F)cc(F)c3F)c(=O)c2c(C)n1Cc1ccc(F)cc1	4.46
Cc1cc(C(=O)OCC(=O)N(C)c2ccccc2)ccc1[N+](=O)[O-]	6.03
CC(C)Cn1nc(C(=O)Nc2nnc(C3CC3)s2)c2ccccc2c1=O	7.25

SMILES	hERG current change (%, negative = inhibition) at 1uM [%]
Cc1ccc(C2(c3ccccc3)NC(=O)N(CC(=O)NC3(C#N)CCCC3)C2=O)cc1C (stereo not shown)	-9.03
Oc1ccc(/C=N\Nc2nncc(-c3ccccc3)n2)cc1	12.6
O=C(NCc1ccccc1Cl)c1cnccn1	11.5
Cc1ccc(Nc2nc(OC(C(F)(F)F)C(F)(F)F)nc(N3CCOCC3)n2)cc1	14.6
Cc1ccc2oc(C(=O)N3CCN(C)C[C@@H]3C(C)C)c(C)c2c1	9.07
CO/N=C(\CCC(=O)O)c1cccs1	5.27
NC(=S)N/N=C1/CCSc2ccc3ccccc3c21	8.16
C/C(=N\NC(=O)Nc1ccccc1)c1ccc2ccccc2c1	8.13
COc1ccc(CCNC(=O)CCS(=O)(=O)c2ccc3c(c2)oc(=O)n3C)cc1OC	13.1
C=CCN(C(=O)CNC(=O)c1cccs1)C(C(=O)NC1CCCCC1)c1cccnc1 (stereo not shown)	12.5
COc1ccc([N+](=O)[O-])cc1NC(=O)C(C)N(C)Cc1ccc(Br)cc1 (stereo not shown)	8.31
COc1cccc(C2NC(=O)NC(C)=C2C(=O)Nc2cc(OC)ccc2OC)c1 (stereo not shown)	1
CS(=O)(=O)Nc1ccc(C2=NN(C(=O)c3ccco3)C(c3ccco3)C2)cc1 (stereo not shown)	-23.2
Cc1cc(C)n(CCCNC(=O)c2ccc(C)c(S(=O)(=O)N3CCOCC3)c2)n1	8.37
COc1ccc(-c2nnc(SCc3ccc(C(=O)O)cc3)n2C)cc1OC	6.22
Cc1nn(Cc2ccccc2)c(C)c1C(=O)OCC(=O)c1cc(C)n(C2CC2)c1C	-10.9
O=C(CSCc1ccccc1Br)N/N=C/c1ccc2c(c1)OCO2	5.23
CC(=O)Oc1cccc(N2C(=O)c3ccc(C(=O)O)cc3C2=O)c1	10.2
COc1ccccc1N1CCN(C(=O)C(C)N(c2ccccc2)S(C)(=O)=O)CC1 (stereo not shown)	9.88
COc1ccc(OCCCC(=O)OC(C)C(=O)Nc2ccccc2[N+](=O)[O-])cc1 (stereo not shown)	7.99
COC(=O)c1ccc(N2CCN(C)CC2)c([N+](=O)[O-])c1	-12
Cn1c(=O)c2c(-c3ccc(OC(F)F)cc3)cc(-c3ccccc3)nc2n(C)c1=O	10.2

Reference: paper PMC4336329 (PLoS ONE, 2015)
